# Source: the supplement of paper PMC12217912
# Some of the results follow. The full chains were built here from the parent and the listed change. Values near 0.05 are background.
# B1: TEV protease; numbered along this chain (parent)
# chain: MGESLFKGPRDYNPISSSICHLTNESDGHTTSLYGIGFGPFIITNKHLFRRNNGTLVVQSLHGVFKVKDTTTLQQHLVDGRDMIIIRMPKDFPPFPQKLKFREPQREERICLVTTNFQTKSMSSMVSDTSCTFPSGDGIFWKHWIQTKDGQCGSPLVSTRDGFIVGIHSASNFTNTNNYFTSVPKNFMELLTNQEAQQWVSGWRLNADSVLWGGHKVFMVKPEEPFQPVKEATQL
# Variants of: B1
# Assay: raw area under fraction-flipped curve 0-4 h after induction (AUC4h, not background-subtracted), DNA-recorder readout of cleavage of the substrate (dimensionless); higher = more cleavage of the substrate by the protease variant
# Conditions: temperature: 34 °C; time window: 0-4 h after rhamnose induction
# 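Also: Bxb1 expression induced with 0.2% (w/v) L-rhamnose at OD600 near 0.5, cultures sampled hourly, flipped fraction per protease–substrate barcode pair counted by paired-end Illumina sequencing.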
Variant,area with substrate ENLYFCS,area with substrate ENLYFES,area with substrate ENLYFHS,area with substrate ENLYFMS,area with substrate ENLYFPS,area with substrate ENLYFVS,area with substrate ENLYFFS,area with substrate ENLYFGS,area with substrate ENLYFIS,area with substrate ENLYFKS,area with substrate ENLYFNS,area with substrate ENLYFTS,area with substrate ENLYFWS,area with substrate ENLYFYS,area with substrate ENLYFRS,area with substrate ENLYFSS,area with substrate ENLYFLS,area with substrate ENLYFDS
F163H,0.0549,0.0538,0.0488,0.0816,0.0256,0.0552,–,–,–,–,–,–,–,–,–,–,–,–
W144I,0.0562,–,–,0.0698,0.0672,–,0.0398,0.0669,0.063,0.0573,0.0602,0.0573,0.0525,0.0551,–,–,–,–
K216P,0.074,–,–,–,–,–,–,–,0.0568,0.0482,0.0426,–,0.0567,–,–,–,–,–
V165N,0.0393,–,–,–,0.0573,–,0.0308,0.0566,0.0375,0.0374,–,0.0493,–,–,0.0459,0.03,–,–
P184Q,0.0448,0.0558,–,0.0769,0.0636,–,0.0663,–,0.0417,0.0665,0.062,0.0432,0.0495,0.0538,0.0519,0.0596,0.0608,–
H21E,0.0649,0.0616,0.06,0.0659,0.0552,0.0595,0.0657,–,0.0544,0.0697,–,0.0576,0.0523,0.0589,0.0531,–,0.0561,0.0668
H21F,0.065,0.0598,0.0629,0.0595,0.0469,0.0614,–,0.06,0.0575,0.0594,0.0576,0.0629,–,–,–,0.0575,0.0515,–
K66S,0.0692,0.072,–,0.068,0.0656,–,0.0574,0.0636,0.0532,0.0555,–,–,–,–,–,–,–,–
M219F,0.0706,0.0881,–,0.0739,0.0568,0.0559,0.0527,0.0607,0.049,–,0.0552,0.0979,–,0.069,0.0568,–,0.0753,0.0444
H168T,0.0566,0.0617,0.0349,0.0525,0.059,–,0.0615,–,0.0592,0.0621,0.0559,–,–,–,–,–,0.0662,0.073
H168V,–,0.0638,0.061,0.0566,0.048,0.0635,–,0.0497,0.0528,–,0.0672,–,0.0429,0.04,–,0.0582,–,0.0266
A207I,0.0553,–,–,0.0661,0.0449,0.0677,0.0515,0.0656,–,0.0706,0.053,–,0.038,0.0621,0.0483,0.0544,–,0.0661
G136A,0.0601,0.0566,0.0543,0.0662,0.0595,–,0.0794,–,0.0542,–,0.0472,0.0542,–,–,–,–,–,–
F117V,0.0468,0.0693,0.0657,0.0688,0.0551,–,0.0666,0.0462,0.0541,0.0713,0.0611,0.0699,–,–,0.0676,0.0627,–,0.0517
W141H,0.0415,0.0473,–,0.0695,0.0727,–,0.0718,0.0158,0.046,0.0537,–,–,0.0295,–,0.0509,0.0591,–,0.0597
L48Y,0.0673,–,–,0.0635,0.0562,–,0.0805,0.0621,0.0536,–,0.0792,0.0621,–,–,–,–,–,–

Variant,area with substrate ENLYFCS,area with substrate ENLYFES,area with substrate ENLYFHS,area with substrate ENLYFMS,area with substrate ENLYFPS,area with substrate ENLYFVS,area with substrate ENLYFFS,area with substrate ENLYFGS,area with substrate ENLYFIS,area with substrate ENLYFKS,area with substrate ENLYFNS,area with substrate ENLYFTS,area with substrate ENLYFWS,area with substrate ENLYFYS,area with substrate ENLYFRS,area with substrate ENLYFSS,area with substrate ENLYFLS,area with substrate ENLYFDS
C152H,0.0477,0.0537,–,–,0.0524,–,0.0742,–,0.0551,0.0561,–,0.0501,–,0.0496,–,–,–,0.0719
N177Y,0.0567,–,–,0.064,0.0755,–,–,–,0.0622,0.064,–,–,–,–,–,–,–,–
V64E,0.0575,–,–,0.0603,0.061,0.0783,0.0415,–,0.0551,0.0719,–,0.0673,–,–,–,0.0421,0.0777,–
F226D,0.102,0.0665,0.0462,–,0.0402,0.0106,–,–,0.0508,–,–,0.0629,–,0.0528,0.0583,–,0.0668,0.0146
K120D,0.059,0.0678,0.053,0.0599,0.0644,0.0706,0.0777,–,–,0.0716,–,–,–,–,–,–,0.079,–
K120V,0.0507,0.0598,0.0649,0.0654,0.0554,–,–,–,0.032,–,0.0649,0.0722,0.0606,0.0526,0.064,0.0477,–,0.0588
D11E,0.0751,0.0517,0.0549,0.0689,0.0627,0.05,0.0779,0.0544,0.0529,0.0781,0.0711,0.0657,0.0608,0.06,0.0471,0.0656,–,–
T192S,0.0512,0.0591,–,0.0628,0.0428,–,–,–,0.0451,–,0.0652,0.0649,0.0683,0.0505,–,0.0579,–,0.0609
L33K,0.067,0.0515,–,0.0602,0.0581,–,0.0643,0.0597,0.0616,0.063,0.0694,0.0769,–,–,–,0.0612,–,–
F218R,0.0596,0.0653,0.0661,0.0648,0.0658,–,–,–,0.0532,0.0626,0.0745,0.0572,0.0498,–,0.0741,0.0597,–,–
G8M,0.0711,–,0.0593,–,0.0479,0.0591,–,–,0.0134,–,–,–,0.0542,–,–,–,–,–
P104N,0.0477,0.0409,–,0.0501,0.0486,–,0.0583,–,0.0458,0.0511,0.0571,0.0434,0.043,0.047,–,0.0437,0.0277,–
P104S,0.0523,0.0552,–,0.0472,0.045,0.0588,0.0619,–,0.0425,0.049,0.0469,0.0561,0.0497,0.0357,0.0529,0.0441,0.0192,0.053
G150N,0.0567,0.0594,–,0.0597,0.0568,0.0519,0.0608,0.0738,0.053,0.0592,0.0325,0.0637,0.0547,0.0519,0.0512,–,–,–
T114H,0.0615,0.06,–,–,0.0562,–,0.0716,–,0.0523,0.0691,–,–,–,0.0797,0.0591,–,–,0.0696
